Test results: article PMC4336329 (PLoS ONE, 2015)
Among all 310,000 compounds or so, about 2,200 (0.71%) showed an effect of 50% or more. The effect is printed as a negative number. This is one part of the list.

molecular target: human ether-à-go-go-related gene (hERG) potassium channel (human, UniProt Q12809); experiment: primary screen, population patch clamp on CHO cells stably expressing hERG
Sequence (Q12809 whole entry, looked up): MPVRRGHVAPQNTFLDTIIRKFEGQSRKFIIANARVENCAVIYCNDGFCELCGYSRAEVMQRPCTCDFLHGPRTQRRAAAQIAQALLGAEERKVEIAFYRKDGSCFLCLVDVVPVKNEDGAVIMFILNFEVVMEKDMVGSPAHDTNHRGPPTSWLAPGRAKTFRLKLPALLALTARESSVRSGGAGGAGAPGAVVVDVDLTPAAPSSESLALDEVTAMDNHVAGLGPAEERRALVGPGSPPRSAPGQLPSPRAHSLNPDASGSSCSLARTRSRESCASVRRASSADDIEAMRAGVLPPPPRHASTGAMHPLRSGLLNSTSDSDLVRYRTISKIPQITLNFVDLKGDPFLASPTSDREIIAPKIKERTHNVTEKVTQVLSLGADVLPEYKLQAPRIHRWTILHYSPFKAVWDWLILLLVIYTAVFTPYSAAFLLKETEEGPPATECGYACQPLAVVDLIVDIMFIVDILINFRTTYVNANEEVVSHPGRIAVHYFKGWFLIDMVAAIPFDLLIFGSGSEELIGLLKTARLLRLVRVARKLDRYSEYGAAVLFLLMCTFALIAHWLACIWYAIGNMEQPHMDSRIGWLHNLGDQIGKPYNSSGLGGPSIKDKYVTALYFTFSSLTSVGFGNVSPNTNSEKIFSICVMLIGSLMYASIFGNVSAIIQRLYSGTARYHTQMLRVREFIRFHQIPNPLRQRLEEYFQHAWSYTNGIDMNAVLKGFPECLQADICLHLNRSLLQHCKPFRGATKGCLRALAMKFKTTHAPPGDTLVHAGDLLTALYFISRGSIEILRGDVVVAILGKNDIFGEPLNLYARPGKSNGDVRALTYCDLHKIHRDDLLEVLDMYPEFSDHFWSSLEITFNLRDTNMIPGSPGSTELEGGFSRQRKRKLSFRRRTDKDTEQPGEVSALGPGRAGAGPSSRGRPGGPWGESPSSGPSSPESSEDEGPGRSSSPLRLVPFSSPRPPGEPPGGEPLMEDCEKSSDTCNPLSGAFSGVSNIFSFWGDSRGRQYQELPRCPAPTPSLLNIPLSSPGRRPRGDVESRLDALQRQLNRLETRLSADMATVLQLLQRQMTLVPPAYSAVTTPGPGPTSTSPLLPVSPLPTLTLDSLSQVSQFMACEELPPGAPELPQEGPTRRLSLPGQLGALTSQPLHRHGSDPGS

Row | Compound | hERG current change (%, negative = inhibition) at 1uM
1 | O=C(COC(=O)c1cc([N+](=O)[O-])ccc1NCc1ccccc1)NCc1ccccc1Cl | 14.2%
2 | Cc1cc(N2CCN(c3ccc(C(F)(F)F)cc3[N+](=O)[O-])CC2)c2ccccc2n1 | -64.2%
3 | O=C(/C=C/c1ccc([N+](=O)[O-])cc1)NCc1cccs1 | 12.3%
4 | CSc1ccc(CCNS(=O)(=O)c2c(C)[nH]c(C)c2C(=O)N2CCCCC2)cc1 | 4.35%
5 | O=C(OCC(=O)N1CCCC1=O)c1ccc(O)cc1O | 10.2%
6 | COc1ccc(OC)c(N=C(C)C2=C(O)COC2=O)c1 | -4.71%
7 | NC(=O)c1ccccc1OCC(=O)NS(=O)(=O)c1ccccc1 | 10%
8 | COc1cccc(N2CC(=O)N(NC(=O)c3sc4nc(C)cc(C)c4c3N)CC2=O)c1 | 10.7%
9 | CC(C)(C)NC(=S)NCc1ccc2c(c1)OCO2 | 8.13%
10 | COc1ccc(S(=O)(=O)N2CCN(C(=O)CN3C(=O)NC(C)(C)C3=O)CC2)cc1 | 14%
11 | CCOC(=O)N1CCC(NC(=O)c2cc(C(=O)Nc3cccc(OC)c3)ccc2CO)CC1 | 14%
12 | O=C(COc1ccc2c(c1)oc(=O)c1ccccc12)NC(Cc1ccc(Cl)cc1)C(=O)O (stereo not shown) | 5.37%
13 | Nc1nonc1-n1nnc(C(=O)N/N=C/c2ccc(O)cc2)c1COc1ccc(F)cc1 | 19.1%
14 | O=C(CCNS(=O)(=O)c1cccc2nsnc12)NCc1ccco1 | 7.54%
15 | COC(=O)Nc1ccc(S(=O)(=O)N2CCCC(C(=O)N3CCN(C)CC3)C2)cc1 (stereo not shown) | 7.31%
16 | Cc1ccc(O)c(NC(=O)c2noc(C(C)C)c2[N+](=O)[O-])c1 | 10.7%
17 | NNC(=O)c1ccc(COc2ccccc2)cc1 | 4.41%
18 | COc1ccccc1C(=O)C1CCCN(Cc2cn[nH]c2C2CCCCC2)C1 (stereo not shown) | -6.1%
19 | COC(=O)Cc1[nH]n(-c2ccccc2)c(=O)c1C=Nc1ccc(C)cc1 | -7.21%
20 | COc1ccc(Cc2c([O-])[nH]c(=O)[nH]c2=O)c(OC)c1.[NH4+] | 8.48%
21 | COc1ccc(C(=O)N[C@H](C(=O)OCc2nc3ccsc3c(=O)[nH]2)C(C)C)cc1 | -1.98%
22 | O=C(COc1ccc(S(=O)(=O)N2CCOCC2)cc1)Nc1cccc([N+](=O)[O-])c1 | 9.62%

Row | Compound | hERG current change (%, negative = inhibition) at 1uM
23 | COC(=O)c1ccc(OC(=O)c2ccccn2)cc1 | 8.57%
24 | COc1ccc(C(=O)NC(=S)Nc2ccccc2[N+](=O)[O-])cc1OC | 13.3%
25 | COC(=O)/C=c1/s/c(=C(/C#N)C(=O)N2CCCCC2)n(-c2ccccc2)c1=O | 9.76%
26 | O=C1CSC(c2cccnc2)N1c1ccc(Cl)cc1 (stereo not shown) | 8.11%
27 | O=C(c1sc2ccccc2c1Cl)N1CCN(c2ccc(F)cc2)CC1 | 8.08%
28 | Cn1c(SCc2ccccc2Br)nc2ccccc2c1=O | 12.1%
29 | OCC[C@H]1C[C@@H](O)[C@H](O)[C@]2(CCCO2)O1 | 3.64%
30 | O=C(Cc1csc(Nc2nc(=S)[nH]c3ccccc23)n1)N1CCN(c2cccc(C(F)(F)F)c2)CC1 | -3.22%
31 | COCCN(CC(=O)NCc1ccccc1)C(=O)CCC(=O)Nc1nccs1 | 13.6%
32 | O=C1CN(C(=O)C2CC2)c2ccccc2N1 | -7.98%
33 | O=C(CSc1ccc(-c2ccccn2)nn1)c1ccccc1 | 10.6%
34 | COc1ccc(/C=C/C(=O)OCC(=O)Nc2ccc(N3CCOCC3)cc2)cc1 | 32.9%
35 | O=C(NC1CCCCC1)c1cc(-c2ccccn2)nc2ccccc12 | 21.6%
36 | O=S(=O)(NCC1CCCO1)c1cc(Cl)ccc1Cl (stereo not shown) | 12.8%
37 | Cc1ccccc1NC(=O)NCc1cccnc1 | 9.99%
38 | O=c1oc2ccc(Cl)cc2nc1/C=C(\O)c1cccs1 | 6.68%
39 | Cl.OCCNCc1cc(Br)ccc1OCc1ccc(Cl)cc1 | -11.7%
40 | O=C(NC1C(=O)NNC1c1ccc(Cl)cc1)c1ccc(F)cc1 (stereo not shown) | 7.07%
41 | Cc1cc(C(=O)NCc2ccccc2Cl)n(-c2ccccc2)n1 | -5.63%
42 | CCCN1C(=O)c2cc(C(=O)NCCc3cccc(C)c3)ccc2C1O (stereo not shown) | 0.502%
43 | Cl.NS(=O)(=O)c1ccc(CCNCC#Cc2ccccc2)cc1 | 10.5%
44 | COc1ccccc1C(=O)N(Cc1nc(-c2ccc(Cl)cc2)no1)C(C)C | 9.86%

Row | Compound | hERG current change (%, negative = inhibition) at 1uM
45 | Cc1nn(-c2ccccc2)c(Cl)c1C(=O)Nc1c(C)n(C)n(-c2ccccc2)c1=O | 11.3%
46 | O=C1CC(c2ccc(Cl)cc2)n2nc(NS(=O)(=O)c3ccc(F)cc3)nc2N1 (stereo not shown) | 14.7%
47 | CN(C)S(=O)(=O)c1cc(NC(=O)c2cc(=O)c3ccccc3o2)ccc1Cl | 8.72%
48 | O=C1c2ccccc2NC(c2ccc(-c3ccc(F)cc3)o2)N1O (stereo not shown) | -3.08%
49 | C[C@H](NC(=O)c1nc[nH]c1C(=O)N[C@@H](C)C(=O)OC(C)(C)C)C(=O)OC(C)(C)C | 15.1%
50 | COc1ccc(NC(=O)C2=CN3CCS(=O)(=O)N=C3C=C2)c(OC)c1 | 10.9%
51 | CCOc1c(O)ccc(C2NC(=O)N(C)C(C)=C2C(=O)OC)c1[N+](=O)[O-] (stereo not shown) | -1.47%
52 | CCCCN(C(=O)Nc1ccc(Cl)cc1)C1CCN(C(C)=O)CC1 | -19.1%
53 | CSc1cccc(NC(=O)/C=C/c2ccccc2)c1 | 7.15%
54 | Nc1nc(Cl)nc2ncn(Cc3ccccc3)c12 | 19%
55 | NC(=O)OCCCc1ccccc1 | 10.5%
56 | Cc1ccc(/C=N\NC(=O)CNC(=O)C23CC4CC(CC(C4)C2)C3)o1 | 7.18%
57 | O=C(COC(=O)CCc1nc2ccccc2s1)Nc1ccc(Cl)cn1 | 11%
58 | CN(C(=O)c1ccc(F)cc1)c1ccccc1C(=O)NCc1ccccc1 | 12%
59 | CCOc1ccc(S(=O)(=O)Nc2cccc(C(=O)NCC3(N4CCCCC4)CCCCC3)c2)cc1 | -30.5%
60 | O=C(/C=C/c1ccc(-c2ccccc2[N+](=O)[O-])o1)c1ccc(Br)cc1 | -5.23%
61 | Cc1ccn2c(Nc3ccc4c(c3)OCO4)c(-c3ccc(O)cc3)nc2c1 | 0.891%
62 | O=C(NCc1ccc(Cl)cc1)c1ccc(OCC2CCCO2)cc1 (stereo not shown) | 11.7%
63 | CCOC(=O)Cc1c[nH]c(=S)[nH]c1=O | 14.3%
64 | CC(=O)Nc1ccc(Sc2ncccc2C(=O)Nc2ccc(OC(F)(F)F)cc2)cn1 | -3.71%
65 | O=C(NCc1ccco1)c1ccc(S(=O)(=O)N2CCCCC2)cc1 | 10%
66 | COc1cccc(CN2C(=NC(=O)C3CC3)SC3CS(=O)(=O)CC32)c1 (stereo not shown) | 14.8%

Row | Compound | hERG current change (%, negative = inhibition) at 1uM
67 | CCc1ccccc1NC(=O)Nn1cnnc1 | 8.05%
68 | Cc1cc(-n2c(C)cc(C(=O)CSc3nc(N)cc(=O)[nH]3)c2C)no1 | 9.5%
69 | COc1ccc(C(CC(=O)N2CCCC2)c2c(OC)cc(OC)c3c(-c4ccccc4)cc(=O)oc23)cc1 (stereo not shown) | 18.8%
70 | CN(Cc1ccon1)Cc1cn(Cc2ccccc2)nc1-c1ccc2c(c1)OCO2 | -2.81%
71 | Cc1nn(-c2ccccc2)c2c1/C(=N/O)CC(C)(C)C2 | -15%
72 | C/C(=N\NC(=O)C1CC1)c1ccc(OC(F)F)cc1 | 5.86%
73 | Cc1cc(CN(C)C)c(OC(=O)N(C)C)cc1C.Cl | 13.8%
74 | N#CCOc1ccccc1/C=C/c1nc2ccccc2c(=O)[nH]1 | 15.3%
75 | O=C(Nc1ccc2c(c1)OCO2)c1cnn2c1NC(c1ccco1)CC2C(F)(F)F (stereo not shown) | 8.91%
76 | CC(=O)Cc1nsc(NC(=O)c2ccc(-c3ccc(Cl)cc3Cl)o2)n1 | 23.1%
77 | Cc1ccc(-c2nn(-c3cccc(F)c3)cc2CNCCc2ccncc2)o1 | 3.43%
78 | CC(=O)Nc1ccc2c(CN3C(=O)NC(C)(c4ccc(C)cc4)C3=O)cc(=O)oc2c1 (stereo not shown) | 13.5%
79 | CC(=O)N1CCN(S(=O)(=O)c2cccc(C(=O)NNC(=O)Cn3nc(C)cc3C)c2)CC1 | 15.8%
80 | CCOC(=O)Cn1c2ccc(OC)cc2c2nc3ccccc3nc21 | -8.05%
81 | COC(=O)c1cccc(NCN2C(=O)c3ccccc3C2=O)c1 | 5.2%
82 | CC(=O)Nc1ccc(OCC(O)Cn2ccnc2C)cc1 (stereo not shown) | 6.78%
83 | Cl.Clc1ccccc1CN(Cc1ccco1)Cc1nnnn1C1CCCC1 | 9.88%
84 | COc1cccc(/C=C(\C#N)c2nc3ccc(C)cc3[nH]2)c1OCC(=O)O | 14.8%
85 | CCN(CC(=O)NCc1ccc(Cl)cc1)C(=O)c1cc(OC)cc(OC)c1 | -31.8%
86 | Cc1cccc(Nc2nc3ccccc3n3nnnc23)c1 | 11.3%
87 | CC1(C(=O)O)Cc2ccccc2C(=O)O1 (stereo not shown) | 16.5%
88 | CN(CCC1CCOCC1)C(=O)CC1C(=O)NCCN1Cc1c(F)cccc1Cl (stereo not shown) | 10.4%
